Test results from PubChem BioAssay (Tox21).
“And” between values parts separate entries of the source, which are not always exact repeats. Equal entries are not always repeated. The inconclusive results got no clear call from the source; some entries with a clear call stand among them for comparison. Potencies of inconclusive entries are doubtful fits and often do not repeat. A structure can be active in one record and inactive in another. The source made the active and inactive calls. The call rests on the fitted dose curve; in most records, active means well fitted curve in the direction sought with a large enough effect in the repeat runs; inconclusive means weak or mixed curves; inactive means no such curve, though single readings can be large; an effect the other way counts as inactive or inconclusive.

Assay: qHTS RealTime-Glo MT Cell Viability Assay in HEK293 cells - 8 hour (AID 1224887); further: nearly all actives have a fitted effect of over 50% in size
Details: RealTime-Glo luminescence; series mostly up to 76.8 µM
In short: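 600 HEK293 cells per well, dispensed already mixed with RealTime-Glo MT reagents. Compound dosing came 5 h later. The same wells were read for luminescence at 0, 8, 16, 24, 32 and 40 h of exposure at 37 C.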
Potency means the concentration at half of the fitted maximal effect; tags describe the fitted curve by direction and shape.

| SMILES | Potency |
| --- | --- |
| CCCCCc1ccc(N)cc1 | inconclusive: 34.7 µM [cytotoxic, partial curve] |
| OCc1c[nH]c2ccccc12 | inconclusive: 12.8 µM |
| O=C1NCCN1CCN1CCC(c2cn(-c3ccc(F)cc3)c3ccc(Cl)cc23)CC1 | inconclusive: 23.9 µM [cytotoxic, partial curve] |
| COc1ccc(C(=O)CC(=O)c2ccc(C(C)(C)C)cc2)cc1 | inconclusive: 26.4 µM [cytotoxic, partial curve] and inconclusive: 23.9 µM [cytotoxic, partial curve, poor fit] |
| CC(Cc1cccc(C(F)(F)F)c1)NCCOC(=O)c1ccccc1 (stereo not drawn) | inconclusive: 23.9 µM [cytotoxic, single point] |
| CC/C=C\CCOC(=O)c1ccccc1 | inconclusive: 54.9 µM [cytotoxic, single point] |
| CCCC1O[C@@H]2C[C@H]3[C@@H]4CCC5=CC(=O)C=C[C@]5(C)[C@H]4[C@@H](O)C[C@]3(C)[C@]2(C(=O)CO)O1 (stereo partly drawn) | inconclusive: 30.9 µM [cytotoxic, partial curve, poor fit] and inconclusive: 54.9 µM [cytotoxic, single point] |
| Nc1c2ccccc2nc2ccccc12 | inconclusive: 15.3 µM [cytotoxic, full curve] and inconclusive: 23.9 µM [cytotoxic, single point] |
| C#C[C@]1(O)CC[C@H]2[C@@H]3CCc4cc(OC)ccc4[C@H]3CC[C@@]21C | inconclusive: 34.7 µM [cytotoxic, partial curve] and inconclusive: 19 µM [cytotoxic, partial curve, poor fit] |
| C=CC(=O)OCCCCCCOC(=O)C=C | inconclusive: 22.1 µM [cytotoxic, partial curve, poor fit] and inconclusive: 9.77 µM [cytotoxic, partial curve, poor fit] |
| Oc1c(Cl)cc(Cl)cc1Sc1cc(Cl)cc(Cl)c1O | inconclusive: 27.6 µM [cytotoxic, partial curve, poor fit] |
| CN(C)[C@@H](CCOc1cccc2ccccc12)c1ccccc1 | inconclusive: 26.8 µM [cytotoxic, single point] |
| Cc1ccc2c(n1)Oc1ccc(C(C)C(=O)OCC(=O)N(C)C)cc1C2 (stereo not drawn) | inconclusive: 16.9 µM [cytotoxic, partial curve] |
| CC(COc1ccccc1)N(CCCl)Cc1ccccc1 (stereo not drawn) | inconclusive: 49.5 µM [cytotoxic, partial curve] and inconclusive: 43.6 µM [cytotoxic, partial curve] |
| CCCC(C(=O)OCCN(CC)CC)(c1ccccc1)c1ccccc1 | inconclusive: 21.3 µM [cytotoxic, partial curve] |
| Cc1cccc2c1cc1ccc3cccc4ccc2c1c34 | inconclusive: 56.2 µM [rising, single point] |
| CCCN(CCc1cccs1)[C@H]1CCc2c(O)cccc2C1 | active: 15.1 µM |
| O=C1OC2(c3ccccc31)c1cc(I)c(O)c(I)c1Oc1c2cc(I)c(O)c1I | inconclusive: 35.1 µM [cytotoxic, single point] and inconclusive: 26.5 µM [cytotoxic, partial curve, poor fit] |
| CC(C)C(C)(C)C(C)(C)C(C)(C)S | inconclusive: 19.5 µM [cytotoxic, partial curve] |
| C[C@H](CCC(=O)O)[C@H]1CC[C@H]2[C@@H]3CC[C@@H]4C[C@H](O)CC[C@]4(C)[C@H]3C[C@H](O)[C@]12C | inconclusive: 49.1 µM [cytotoxic, single point] |
| COc1cc(C(C)(C)C)c(O)c(C(C)(C)C)c1 | inconclusive: 19.5 µM [cytotoxic, partial curve, poor fit] |
| O=C(O)c1cccc(Cl)n1 | inactive |
| O=C(Cl)c1cc(C(=O)Cl)cc(C(=O)Cl)c1 | active: 49 µM |
| c1ccc2sc(SSN3CCOCC3)nc2c1 | active: 48.9 µM and inconclusive: 54.9 µM [cytotoxic, single point] |
| Cc1ccc(O)c(O)c1 | inconclusive: 42.4 µM [cytotoxic, partial curve] |
| C=C[C@](C)(O)CC[C@@H]1[C@@]2(C)CCCC(C)(C)[C@@H]2CC[C@@]1(C)O | inconclusive: 34.7 µM [cytotoxic, partial curve] |

Assay: A CellTox Green Cytotoxicity Assay to monitor cytotoxicity in HEK293 cells - 16 hour (AID 1224888); further: nearly all actives have a fitted effect of over 35% in size
Details: CellTox Green fluorescence; series mostly up to 76.8 µM
In short: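 Dead-cell fluorescence measured kinetically: asymmetric cyanine dye, HEK293, 600 cells/well, 5 h settle, 23 nL cpd/DMSO, 37 C, reads 0–40 h every 8 h.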

| SMILES | Potency |
| --- | --- |
| OCc1c[nH]c2ccccc12 | inconclusive: 54.9 µM [activator, single point] |
| O=C1NCCN1CCN1CCC(c2cn(-c3ccc(F)cc3)c3ccc(Cl)cc23)CC1 | inconclusive: 23.9 µM [activator, single point] |
| COc1ccc(C(=O)CC(=O)c2ccc(C(C)(C)C)cc2)cc1 | inconclusive: 30.1 µM [activator, single point] |
| O=Cc1cc(O)ccc1Br | inactive |
| C#C[C@]1(O)CC[C@H]2[C@@H]3CCc4cc(OC)ccc4[C@H]3CC[C@@]21C | inconclusive: 54.9 µM [activator, single point] |
| CN1CCN(C2Cc3ccccc3Sc3ccc(Cl)cc32)CC1 (stereo not drawn) | active: 21.3 µM |
| Oc1c(Cl)cc(Cl)cc1Sc1cc(Cl)cc(Cl)c1O | inconclusive: 39 µM [activator, single point] and inconclusive: 44.4 µM [activator, single point] |
| CN(C)[C@@H](CCOc1cccc2ccccc12)c1ccccc1 | inconclusive: 26.8 µM [activator, single point] |
| CC(COc1ccccc1)N(CCCl)Cc1ccccc1 (stereo not drawn) | inconclusive: 55.5 µM [activator, single point] and inconclusive: 61.7 µM [activator, single point] |
| Cc1cccc2c1cc1ccc3cccc4ccc2c1c34 | inconclusive: 56.2 µM [activator, single point] |
| CCCN(CCc1cccs1)[C@H]1CCc2c(O)cccc2C1 | inconclusive: 26.8 µM [activator, single point] |
| O=C1OC2(c3ccccc31)c1cc(I)c(O)c(I)c1Oc1c2cc(I)c(O)c1I | active: 13.3 µM [middle of 4 runs] |
| CC(C)C(C)(C)C(C)(C)C(C)(C)S | inconclusive: 49 µM [activator, partial curve, poor fit] |
| CCCCCCCCCCCCCCCCCCOS(=O)(=O)O | inconclusive: 49 µM [activator, single point] |
| CCN(CC)C(=O)c1cc(S(=O)(=O)Cc2ccccc2)c(N2CCC(c3ccccc3)CC2)cc1N(CC)CCN(C)C | inconclusive: 19.3 µM [activator, single point] |
| CCN(CC)CCSC(=O)C(c1ccccc1)c1ccccc1 | inconclusive: 26.8 µM [activator, single point] |
| C[C@H](CCC(=O)O)[C@H]1CC[C@H]2[C@@H]3CC[C@@H]4C[C@H](O)CC[C@]4(C)[C@H]3C[C@H](O)[C@]12C | inconclusive: 61.9 µM [activator, single point] |
| CCCCC(CC)COP(=O)(O)OCC(CC)CCCC (stereo not drawn) | inconclusive: 49.1 µM [activator, single point] |
| Nc1nc(=S)c2[nH]cnc2[nH]1 | inconclusive: 15.1 µM [activator, single point] |
| COc1cc(C(C)(C)C)c(O)c(C(C)(C)C)c1 | inconclusive: 54.9 µM [activator, single point] |
| O=C(O)c1cccc(Cl)n1 | inconclusive: 54.9 µM [activator, single point] |
| CC1(C)CCC[C@]2(C)[C@H]3CCO[C@]3(C)CC[C@@H]12 | inconclusive: 19.5 µM [activator, single point] |
| O=C(Cl)c1cc(C(=O)Cl)cc(C(=O)Cl)c1 | inconclusive: 61.6 µM [activator, single point] |
| c1ccc2sc(SSN3CCOCC3)nc2c1 | inconclusive: 54.9 µM [activator, single point] |
| Cc1ccc(O)c(O)c1 | inconclusive: 53.4 µM [activator, single point] |
| CCCCCCCCCCCCCCCC(=O)OC[C@H](O)[C@H]1OC(=O)C(O)=C1O | inconclusive: 54.9 µM [activator, single point] |
| C=C[C@](C)(O)CC[C@@H]1[C@@]2(C)CCCC(C)(C)[C@@H]2CC[C@@]1(C)O | inconclusive: 54.9 µM [activator, single point] |
